Data reported in the supplement of paper PMC11417369.
The other results are listed elsewhere or left out.

test system: PfAP2-HC AP2 domain (GST-tagged); assay: gcPBM binding intensity (ln(normalized median fluorescence intensity)); higher = stronger DNA binding
Summary of the method: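 An Agilent 4 × 180k array of primer-extended double-stranded 36-bp intergenic genomic probes, with negative controls, was incubated for 1 h with GST-tagged P. falciparum DNA-binding domains expressed in E. coli. Alexa488 anti-GST antibody detected bound protein, scanned at 488 nm. Binding intensity is the highest Masliner-normalised natural-log median intensity across replicate spots of either probe orientation.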

Sequence | gcPBM binding intensity (ln)
TAATGATTATATGACTGTACATTTGTAGGTATAATT [XGTACX_site3373] | 9.6
TTATTTTTTTCAACAAGTACTAATACAAAATAAAAC [XGTACX_site6460] | 9.38
GATTAAATCGATAATACACACTAAATGTAAAACATT [CACACA_site4248] | 9.81
TTGTATTATTAAATTATAAAACCTATAATTATGGAT [GTGCAC_negctrl_site340] | 9.45
CATATTTATAAATATAAACACACAACATTATATGCA [CACACA_site9065] | 9.95
TTTAATTAATAATAATATAAATTGTTCTTTTTTTTT [GTGCAC_negctrl_site176] | 9.24
GCAAAATAAAGAAGCACACAAAAATGAAATATATAT [CACACA_site3651] | 9.96
TATACGTAATAATATGCACACAAATAAACTTTATAA [CACACA_site9166] | 9.89
TCTTGGTATATTCAATATATGATTTATATAATTCAA [CACACA_negctrl_site818] | 9.54
AAAAAAAATACATACATACACACATATATATATATA [CACACA_site912] | 9.9
ACTAGTAAATTTATATGTACATATATATATATATAG [XGTACX_site2502] | 9.71
ATTTATATATATCATACACACTAATATGTATATTAT [CACACA_site5816] | 9.86
AATAATTTGAAGGTGATAGTATTACATGGGAAATCA [CACACA_negctrl_site301] | 9.68
ACTCTCTTATATTAAACACACATATATATATGTATA [CACACA_site2703] | 9.89
TCAAACAAAAAAGAAACACACACTAATTAAATTTTC [CACACA_site1101] | 9.96
ATCTTTCGAACATGTACACACAGAAAAAAAAAAAAA [CACACA_site5393] | 9.65
TTATATGCATCCAAAAAGGAATGTTTTTAGAGAATC [CACACA_negctrl_site1062] | 9.48
GTGTAGGCAAAAAGTTGTACGCCTAAAATCTATATA [XGTACX_site8912] | 9.6
TGTATAGGTACAATAATTATAGAGTAATTGACATTA [GTGCAC_negctrl_site183] | 9.48
TAAAAAGTATATGGTCGTACACTTTTGATTAATACA [XGTACX_site7804] | 9.51
AAATCGAACAAATTATGTACTAAAAAAAAAATTTAT [XGTACX_site6399] | 9.48
GTACATATAAATATTACACACATTTTCATTTTTAAC [CACACA_site1986] | 9.95

Sequence | gcPBM binding intensity (ln)
CATATAAGAATCTTCTGTACTTATAAGAAAAGACAT [XGTACX_site8135] | 9.38
TAAAACAAAATAACATGTACAAAAAAAAAAAAAAAA [XGTACX_site2915] | 9.24
AAAAAAAAAAAAACAACACACAATGTTTTATTTTAC [CACACA_site1613] | 9.81
ATGTAATATGTTCATGCATGTAAAATTACATTTAGA [TGCATGCA_site852] | 9.65
ATACACAAATGCATACGTACATATATATATATATAT [XGTACX_site3504] | 10.1
TATAAATAAAGACTTTTTTCTAACTTTTTTTTGTAT [CACACA_negctrl_site1015] | 9.55
TATATATATATATATGTGCACATTTATTGCCTTTGC | 9.7
AAAATTTAATATGAATGTACATAAAAAAAAAAAAAA [XGTACX_site6719] | 9.48
TAAGTATATTTCTGCACACAAAAAAAAAAACCAAAA [CACACA_site4056] | 9.93
ATATCTATAATAAACACACAAATAGATATAACATAT [CACACA_site7702] | 9.86
AAAAAAAAATTAAAAACACACATATATATATATATA [CACACA_site1580] | 9.73
ATATTTTTTTTCTTCACACACATGAGTTATAAATAA [CACACA_site7498] | 9.87
AATGAAACAATACCCAGTAAAAAAAAAAAATAAATA [TGCATGCA_negctrl_site205] | 9.74
TGTAATCTGGAGAAGAGTACACAGTATCTGGTAGCT [XGTACX_site4935] | 9.52
ATATATAATATAATATGTACATATAATCAATCCTGT [XGTACX_site8694] | 9.76
ATTTAGTATTCGAAACGTACACATATATATATATAT [XGTACX_site3910] | 9.82
AAGGTAAAATATAAGTGTACTTTTTCTTAATCTTCG [XGTACX_site514] | 9.58
GGACGTATTAAAAGGCGTACACTAAATATTTTATGT [XGTACX_site146] | 9.67
TAATATTTATATAATTGTACTTTGTTTGTAAATCCA [XGTACX_site7292] | 9.55
ATTATAATTTTGTAAAGTACATATTATTATATATTA [XGTACX_site7191] | 9.51
TATTTATATAATCCTATAATATTACTACTATCTTTA [GTGCAC_negctrl_site342] | 9.72
AAGATAATTACGCACACACACACACGCCCACAACTA [CACACA_site7255] | 11.4

Sequence | gcPBM binding intensity (ln)
CCATATATAATGACATGTACTCAAAAAAAAAAAAAA [XGTACX_site685] | 9.42
TTTTTAAAAAAAAATAGAGAGTCAAAGTATGTGGCG [CACACA_negctrl_site194] | 9.52
ATACATATATATATATGTACATATATTTATATTTAT [XGTACX_site3155] | 9.72
TTTCTCTTTTTTTGGGGTACAACCAATCCTATAATA [XGTACX_site297] | 9.54
TAATTCAAACGTGTATGTATATTACTCGAAGAAATA [CACACA_negctrl_site1779] | 9.41
TTTCAAGGATTTAATTTATGGAAACCTTCTTCATTT [GTGCAC_negctrl_site504] | 9.38
CATATAAGACAAAAGGTGCAATTTTAATGCTTTTAT [GTGCAC_site9432] | 9.65
AACCCTTTTGATTTTTCTTTTTTTTTTTTTTTAAAT [CACACA_negctrl_site1667] | 9.53
ACAGTTTGTCTGAGTAGTACATAAATACTTGAAAGG [XGTACX_site7792] | 9.63
AGAAGGATATTATGAAGTACACATATTGTATATGGT [XGTACX_site7503] | 9.7
TAGTAAAATGGAACACGTACATATATCTATGTATAA [XGTACX_site6103] | 9.83
TATATATTTGTGAAAATATTAAAATAAATAAATAAA [CACACA_negctrl_site295] | 9.48
AAAATCTAGGTATTTATACACACTAATATAATATAC [CACACA_site8108] | 9.63
AAGTTCAAAATAAATGGTACAGAAGTATATATATCA [XGTACX_site174] | 9.75
TAAAAAAAGAGATATTGTACACAAAAAAATTTTACT [XGTACX_site1342] | 9.59
TAGAAAAAAAAATACATACACACAATATATTTATTT [CACACA_site3123] | 10.2
CTCAAATAACTTTTTACACACATTATTTGAAATAAG [CACACA_site6722] | 9.7
ATATGAATGATCGTACGTACTTACATATTTATAAAG [XGTACX_site8041] | 9.55
CAGAATACATACATTACACACAAATTTAAGTATATA [CACACA_site1781] | 9.86
TCTTACACTAATAAATGTACATACAAAAAATCTATT [XGTACX_site1379] | 9.53
TACCCACTAAAATACACACACACACCCACATATATA [CACACA_site6141] | 10.4
AATTTGAATATTTGATGTACAAAGTTTTTTAATGTT [XGTACX_site3249] | 9.49

Sequence | gcPBM binding intensity (ln)
GAGAGGATAGTTCACAGTACCCAGTAACTCTACGGA [XGTACX_site4876] | 9.49
GTACCAACAGCACTACTTCTCGCCATTTTCTTGTAG [XGTACX_negctrl_site97] | 9.89
ATAAATATAACATATTGTACCCTTAAAAAGGAACAA [XGTACX_site352] | 9.5
AAATGTATAATTTTTTAATACACTTATTTAAAATAA [CACACA_negctrl_site797] | 9.4
AGGAAAATAATTAAAGCATGCTCATTATGAAATATA [TGCATGCA_site855] | 9.62
AATACATGAACTTAAAGTACTAAAAAAAAAATAATA [XGTACX_site1956] | 9.65
TATGAGAACAAACATTGTACAATAAAAAGTAGATAT [XGTACX_site920] | 9.99
TATACACGCGGACACACACACACACGCAAAAAAAAA [CACACA_site6377] | 10.5
TAAAAACCAAAGAAAAGTACAAATTTAAATGAGAAA [XGTACX_site7450] | 9.83
TTTACACCGTAATATGCATGTGTGTATATATTTTTG [TGCATGCA_site186] | 9.91
ATAAGCCATTTTTGTGGTACATAAAATAGATATATA [XGTACX_site5175] | 9.63
ATATATATTTAAAGATGTACATAATGAAATGGTTAT [XGTACX_site4706] | 10
GCAGTATTTCGGAACACACAAACATAAATATGTATT [CACACA_site2316] | 9.89
ATATATATATATGTATGTACATATTTTTTTTAACAC [XGTACX_site8475] | 9.8
GCACAATTTACACTTAAACACACAAAAAAAAATTAT [CACACA_site8642] | 9.81
AGCACAGACGGACACACACACACACCCACAGACACA [CACACA_site4358] | 11.4
AAATTTATTTATTATAGTACACTTAATACTACCCAA [XGTACX_site41] | 9.44
CATCTTAGTTTGAGTTGTACAATATTTATAAAAATA [XGTACX_site693] | 9.45
ACAAGTTTAACATTTCGTACTTATTGTGTTTTTTTT [XGTACX_site5487] | 10.1
CTTTTAATATTAAGATGTACTTAGAATTTTTTTTTT [XGTACX_site8338] | 9.37
CATATATATTTATGTACACACATTAATAAAAAAAAA [CACACA_site5741] | 9.85
TTTTTTGTTATTGGCGTGCACATATCCATTTATAGT | 9.8
